Measured values: the supplement of paper PMC12217912
The list shows a part of the results. Sequences were assembled here from the parent chain. Values near 0.05 are background.

B1: TEV protease; numbered along this chain (parent)
chain: MGESLFKGPRDYNPISSSICHLTNESDGHTTSLYGIGFGPFIITNKHLFRRNNGTLVVQSLHGVFKVKDTTTLQQHLVDGRDMIIIRMPKDFPPFPQKLKFREPQREERICLVTTNFQTKSMSSMVSDTSCTFPSGDGIFWKHWIQTKDGQCGSPLVSTRDGFIVGIHSASNFTNTNNYFTSVPKNFMELLTNQEAQQWVSGWRLNADSVLWGGHKVFMVKPEEPFQPVKEATQL

Variants of: B1
Assay: raw area under fraction-flipped curve 0-4 h after induction (AUC4h, not background-subtracted), DNA-recorder readout of cleavage of the substrate (dimensionless); higher = more cleavage of the substrate by the protease variant
Conditions: temperature: 34 °C; time window: 0-4 h after rhamnose induction
Protocol: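 In vivo DNA recorder in E. coli TOP10(DE3) ΔrhaA at 34 °C. Each TEVp single-site mutant (parent TEVp 0) is paired with a single-site variant of the 7-mer TEVs (canonical ENLYFQ|S). The substrate sits between flexible linkers in a Bxb1-sfGFP-TEVs-SsrA fusion, so cleavage stabilises Bxb1 and speeds flipping of a recombination array, read by NGS. The value is the raw area under the fraction-flipped curve over 0-4 h after rhamnose induction (AUC4h), with ≥20 reads per time point. It is not background-subtracted; inactive controls average about 0.047.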
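Also: Bxb1 expression induced with 0.2% (w/v) L-rhamnose at OD600 near 0.5, cultures sampled hourly, flipped fraction per protease–substrate barcode pair counted by paired-end Illumina sequencing.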

Row | Variant | area with substrate ENLYFAS | area with substrate ENLYFDS | area with substrate ENLYFES | area with substrate ENLYFFS | area with substrate ENLYFGS | area with substrate ENLYFHS | area with substrate ENLYFIS | area with substrate ENLYFKS | area with substrate ENLYFLS | area with substrate ENLYFMS | area with substrate ENLYFNS | area with substrate ENLYFPS | area with substrate ENLYFRS | area with substrate ENLYFTS | area with substrate ENLYFVS | area with substrate ENLYFYS | area with substrate ENLYFWS | area with substrate ENLYFCS | area with substrate ENLYFSS
1 | F133P | 0.0578 | 0.0473 | 0.0602 | 0.0639 | 0.0619 | 0.0516 | 0.048 | 0.0505 | 0.0653 | 0.034 | 0.0497 | 0.0562 | 0.0523 | 0.0681 | 0.0481 | 0.0465 |  |  | 
2 | P134W | 0.0325 | 0.0567 | 0.0701 | 0.0756 | 0.0258 |  | 0.0661 | 0.0641 |  | 0.0579 | 0.0502 | 0.0382 |  | 0.0491 |  |  | 0.0578 |  | 
3 | S135F | 0.0588 |  | 0.0585 | 0.0647 | 0.0592 | 0.0607 | 0.049 | 0.0566 |  | 0.048 | 0.0547 | 0.0626 | 0.0526 | 0.0538 | 0.0635 | 0.0583 |  | 0.0623 | 0.0581
4 | S135K | 0.0657 | 0.0304 | 0.0679 |  | 0.0578 | 0.049 |  |  |  | 0.0691 |  | 0.058 |  | 0.0494 |  |  | 0.0369 |  | 
5 | S135N | 0.0666 | 0.0665 | 0.0677 | 0.0751 | 0.0606 | 0.0543 | 0.0592 |  | 0.0491 | 0.0947 | 0.0564 | 0.0675 | 0.0627 | 0.0593 | 0.0505 |  | 0.0769 | 0.059 | 0.0528
6 | G136D | 0.0484 | 0.0574 | 0.054 | 0.0632 |  | 0.0755 | 0.0567 | 0.0711 |  | 0.0672 | 0.0475 | 0.0066 |  | 0.052 | 0.0596 | 0.0698 | 0.0594 | 0.0652 | 0.0643
7 | I139V | 0.0685 | 0.0666 | 0.0705 | 0.0658 |  |  | 0.0633 | 0.0505 | 0.0593 | 0.0748 | 0.0692 | 0.0451 | 0.0532 | 0.0664 |  | 0.0624 | 0.056 | 0.065 | 0.0509
8 | F140L | 0.0476 |  | 0.0546 | 0.0732 |  | 0.0529 | 0.0572 | 0.0631 |  | 0.0499 | 0.0707 | 0.0294 |  | 0.0576 |  | 0.0469 | 0.0545 | 0.055 | 0.0603
9 | F140V | 0.0507 | 0.0648 | 0.0614 | 0.0766 | 0.0552 | 0.0535 | 0.0561 | 0.0545 |  | 0.0492 | 0.0608 | 0.0617 | 0.0561 | 0.0446 | 0.0358 | 0.0543 | 0.0528 | 0.0532 | 0.0619
10 | K142W | 0.0637 | 0.0556 | 0.0687 | 0.0704 | 0.0455 |  | 0.0319 | 0.0729 | 0.0585 | 0.0482 |  | 0.0628 | 0.0529 |  |  | 0.0591 |  |  | 0.0468
11 | I145V | 0.0654 |  | 0.0685 |  | 0.0718 | 0.0626 | 0.0626 | 0.0402 |  | 0.0708 | 0.0766 |  | 0.0646 |  | 0.0487 | 0.0421 |  |  | 0.0586
12 | Q146D | 0.0423 |  |  | 0.0751 |  | 0.0403 | 0.069 | 0.0703 |  | 0.0762 |  |  |  | 0.0625 |  | 0.0816 | 0.0687 | 0.0841 | 
13 | T147M | 0.0479 |  | 0.0546 | 0.0839 |  | 0.049 | 0.0663 |  |  | 0.065 |  | 0.0668 | 0.0605 |  | 0.0621 | 0.0895 | 0.0473 | 0.0544 | 
14 | T147R | 0.054 |  | 0.058 | 0.0638 |  |  | 0.0639 | 0.0581 | 0.0466 | 0.0542 |  | 0.0576 | 0.0561 | 0.0538 | 0.06 |  | 0.054 | 0.0583 | 0.0611
15 | K148C | 0.0642 |  | 0.0513 | 0.0635 | 0.0595 | 0.0629 | 0.0528 | 0.0537 |  | 0.076 | 0.0588 |  | 0.0475 | 0.0611 | 0.057 |  | 0.0476 | 0.0553 | 0.0637
16 | D149T | 0.0672 | 0.0664 | 0.078 | 0.086 | 0.0684 | 0.0206 | 0.0585 |  |  | 0.061 | 0.0529 | 0.0465 | 0.051 | 0.0547 |  | 0.0619 | 0.0585 |  | 0.0497
17 | Q151N | 0.0572 |  | 0.0676 | 0.0708 |  | 0.0612 | 0.0579 | 0.073 | 0.0487 | 0.0637 | 0.0567 | 0.0541 |  | 0.0714 | 0.0616 |  | 0.0543 | 0.0639 | 0.0533
18 | Q151T | 0.0671 | 0.0576 | 0.0634 | 0.0594 | 0.0736 | 0.0651 | 0.0454 | 0.0614 | 0.0457 |  | 0.0612 | 0.0586 | 0.0666 | 0.0615 |  | 0.0733 | 0.0526 | 0.0539 | 0.0364
19 | V157E | 0.0562 | 0.0485 | 0.0465 | 0.0556 | 0.0556 | 0.063 | 0.0594 | 0.0584 |  |  | 0.0579 | 0.0547 | 0.0488 |  |  |  | 0.0615 |  | 
20 | V157W | 0.0538 | 0.0611 | 0.0621 | 0.0435 |  | 0.0567 | 0.0511 |  |  |  | 0.0586 | 0.053 |  | 0.0675 | 0.0703 | 0.0425 | 0.062 |  | 0.0647
21 | S158N | 0.0573 |  | 0.0157 | 0.061 |  |  | 0.0485 |  |  |  | 0.0498 | 0.0513 |  | 0.0552 | 0.0618 |  | 0.0553 | 0.0488 | 
22 | R160W | 0.0666 |  | 0.0888 | 0.0614 |  | 0.0562 |  | 0.0716 |  | 0.081 | 0.0822 |  |  | 0.0648 | 0.0736 |  | 0.0587 | 0.0879 | 0.0631
23 | G162L | 0.0609 | 0.041 | 0.0496 | 0.0668 |  | 0.0724 | 0.0475 |  | 0.0512 |  | 0.0644 | 0.0611 | 0.0663 | 0.0664 |  |  |  |  | 0.0604
24 | G162R | 0.0544 |  |  | 0.052 |  |  | 0.044 | 0.071 |  |  |  | 0.0553 |  | 0.062 | 0.032 |  | 0.0572 | 0.0697 | 
25 | I164G | 0.0869 |  | 0.0488 |  | 0.0708 |  | 0.0439 | 0.0601 | 0.0616 | 0.0526 | 0.0667 | 0.0513 | 0.0505 |  | 0.0492 | 0.0313 | 0.0498 |  | 0.0386
